Drawing on the supplement of paper PMC12230231, this text covers enrichment for twelve sequences.

± gives the standard deviation of the averaged measurements. Restriction of a single-cycle SIVsab GFP reporter by TRIM5α v1-loop variants in CRFK cells. Human variants: read share among cells still uninfected after two challenges over input, higher = gained restriction. Rhesus variants: share among infected cells over input, higher = lost restriction. Reporter dose not given per row. No active / inactive call per row; the paper calls a change when both replicates lie above its controls (mean + 2 SD of stop or wild-type variants, or the top frameshift score). Residues outside the varied loop are taken from Swiss-Prot. The paper reads the human single-substitution scores as noise; they and the rhesus combinations repeat poorly (rank correlation 0.3 to 0.4), indel scores repeat only for the top variants, rhesus substitutions well (0.9).

The subject of one data set is SIVsab (simian immunodeficiency virus of sabaeus monkeys), single-cycle GFP reporter, in CRFK cells. In words: enrichment among uninfected cells over input (fold); higher = stronger restriction. Conditions: library: human / rhesus combinations. The protocol:
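Pools of CRFK cells expressing variants of the TRIM5α v1 loop were challenged with the single-cycle reporter, sorted by GFP and sequenced; mean of two replicates.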
On to “MASGILVNVKEEVTCPICLELLTQPLSLDCGHSFCQACLTANHKKSMLDKGESSCPVCRISYQPENIRPNRHVANIVEKLREVKLSPEGQKVDHCARHGEKLLLFCQEDGKVICWLCERSQEHRGHHTFLTEEVAREYQVKLQAALEMLRQKQQEAEELEADIREEKASWKTQIQYDKTNVLADFEQLRDILDWEESNELQNLEKEEEDILKSLTNSETEMVQQTQSLRELISDLEHRLQGSVMELLQGVDGVIKRTENVTLKKPETFPKNQRRVFRAPDLKGMLEVFRELTDVRRYWVDVTVAPNNISCAVISEDKRQVSSPKPQIIYGARGTRYTFPTLTNFNYCTGILGSQSITSGKHYWEVDVSKKTAWILGVCAGFQPDAMCNIEKNENYQPKYGYWVIGLEEGVKCSAFQDSSFHTPSVPFIVPLSVIICPDRVGVFLDYEACTVSFFNITNHGFLIYKFSHCSFSQPVFPYLNPRKCGVPMTLCSPSS [human TRIM5α, 330-340 = GARGTRYTFPTLT]”, for which the enrichment was found to be 0.324 ± 0.16.
In the case of “MASGILVNVKEEVTCPICLELLTQPLSLDCGHSFCQACLTANHKKSMLDKGESSCPVCRISYQPENIRPNRHVANIVEKLREVKLSPEGQKVDHCARHGEKLLLFCQEDGKVICWLCERSQEHRGHHTFLTEEVAREYQVKLQAALEMLRQKQQEAEELEADIREEKASWKTQIQYDKTNVLADFEQLRDILDWEESNELQNLEKEEEDILKSLTNSETEMVQQTQSLRELISDLEHRLQGSVMELLQGVDGVIKRTENVTLKKPETFPKNQRRVFRAPDLKGMLEVFRELTDVRRYWVDVTVAPNNISCAVISEDKRQVSSPKPQIIYGARGTRYTFPTLVNFNYCTGILGSQSITSGKHYWEVDVSKKTAWILGVCAGFQPDAMCNIEKNENYQPKYGYWVIGLEEGVKCSAFQDSSFHTPSVPFIVPLSVIICPDRVGVFLDYEACTVSFFNITNHGFLIYKFSHCSFSQPVFPYLNPRKCGVPMTLCSPSS [human TRIM5α, 330-340 = GARGTRYTFPTLV]”, the enrichment came out at 0.0956 ± 0.014.
“MASGILVNVKEEVTCPICLELLTQPLSLDCGHSFCQACLTANHKKSMLDKGESSCPVCRISYQPENIRPNRHVANIVEKLREVKLSPEGQKVDHCARHGEKLLLFCQEDGKVICWLCERSQEHRGHHTFLTEEVAREYQVKLQAALEMLRQKQQEAEELEADIREEKASWKTQIQYDKTNVLADFEQLRDILDWEESNELQNLEKEEEDILKSLTNSETEMVQQTQSLRELISDLEHRLQGSVMELLQGVDGVIKRTENVTLKKPETFPKNQRRVFRAPDLKGMLEVFRELTDVRRYWVDVTVAPNNISCAVISEDKRQVSSPKPQIIYGARGTRYTFQSFTNFNYCTGILGSQSITSGKHYWEVDVSKKTAWILGVCAGFQPDAMCNIEKNENYQPKYGYWVIGLEEGVKCSAFQDSSFHTPSVPFIVPLSVIICPDRVGVFLDYEACTVSFFNITNHGFLIYKFSHCSFSQPVFPYLNPRKCGVPMTLCSPSS [human TRIM5α, 330-340 = GARGTRYTFQSFT]”: the enrichment worked out at 0.0801 ± 0.045.
The same measure, in the same setting: to “MASGILVNVKEEVTCPICLELLTQPLSLDCGHSFCQACLTANHKKSMLDKGESSCPVCRISYQPENIRPNRHVANIVEKLREVKLSPEGQKVDHCARHGEKLLLFCQEDGKVICWLCERSQEHRGHHTFLTEEVAREYQVKLQAALEMLRQKQQEAEELEADIREEKASWKTQIQYDKTNVLADFEQLRDILDWEESNELQNLEKEEEDILKSLTNSETEMVQQTQSLRELISDLEHRLQGSVMELLQGVDGVIKRTENVTLKKPETFPKNQRRVFRAPDLKGMLEVFRELTDVRRYWVDVTVAPNNISCAVISEDKRQVSSPKPQIIYGARGTRYTFQSFVNFNYCTGILGSQSITSGKHYWEVDVSKKTAWILGVCAGFQPDAMCNIEKNENYQPKYGYWVIGLEEGVKCSAFQDSSFHTPSVPFIVPLSVIICPDRVGVFLDYEACTVSFFNITNHGFLIYKFSHCSFSQPVFPYLNPRKCGVPMTLCSPSS [human TRIM5α, 330-340 = GARGTRYTFQSFV]” belongs 0.268 ± 0.1.
For the sequence “MASGILVNVKEEVTCPICLELLTQPLSLDCGHSFCQACLTANHKKSMLDKGESSCPVCRISYQPENIRPNRHVANIVEKLREVKLSPEGQKVDHCARHGEKLLLFCQEDGKVICWLCERSQEHRGHHTFLTEEVAREYQVKLQAALEMLRQKQQEAEELEADIREEKASWKTQIQYDKTNVLADFEQLRDILDWEESNELQNLEKEEEDILKSLTNSETEMVQQTQSLRELISDLEHRLQGSVMELLQGVDGVIKRTENVTLKKPETFPKNQRRVFRAPDLKGMLEVFRELTDVRRYWVDVTVAPNNISCAVISEDKRQVSSPKPQIIYGARGTRYTFQSLTNFNYCTGILGSQSITSGKHYWEVDVSKKTAWILGVCAGFQPDAMCNIEKNENYQPKYGYWVIGLEEGVKCSAFQDSSFHTPSVPFIVPLSVIICPDRVGVFLDYEACTVSFFNITNHGFLIYKFSHCSFSQPVFPYLNPRKCGVPMTLCSPSS [human TRIM5α, 330-340 = GARGTRYTFQSLT]”, the enrichment amounted to 0.182 ± 0.0047.
On to “MASGILVNVKEEVTCPICLELLTQPLSLDCGHSFCQACLTANHKKSMLDKGESSCPVCRISYQPENIRPNRHVANIVEKLREVKLSPEGQKVDHCARHGEKLLLFCQEDGKVICWLCERSQEHRGHHTFLTEEVAREYQVKLQAALEMLRQKQQEAEELEADIREEKASWKTQIQYDKTNVLADFEQLRDILDWEESNELQNLEKEEEDILKSLTNSETEMVQQTQSLRELISDLEHRLQGSVMELLQGVDGVIKRTENVTLKKPETFPKNQRRVFRAPDLKGMLEVFRELTDVRRYWVDVTVAPNNISCAVISEDKRQVSSPKPQIIYGARGTRYTFQSLVNFNYCTGILGSQSITSGKHYWEVDVSKKTAWILGVCAGFQPDAMCNIEKNENYQPKYGYWVIGLEEGVKCSAFQDSSFHTPSVPFIVPLSVIICPDRVGVFLDYEACTVSFFNITNHGFLIYKFSHCSFSQPVFPYLNPRKCGVPMTLCSPSS [human TRIM5α, 330-340 = GARGTRYTFQSLV]”, for which the enrichment amounted to 0.0704 ± 0.018.
Regarding “MASGILVNVKEEVTCPICLELLTQPLSLDCGHSFCQACLTANHKKSMLDKGESSCPVCRISYQPENIRPNRHVANIVEKLREVKLSPEGQKVDHCARHGEKLLLFCQEDGKVICWLCERSQEHRGHHTFLTEEVAREYQVKLQAALEMLRQKQQEAEELEADIREEKASWKTQIQYDKTNVLADFEQLRDILDWEESNELQNLEKEEEDILKSLTNSETEMVQQTQSLRELISDLEHRLQGSVMELLQGVDGVIKRTENVTLKKPETFPKNQRRVFRAPDLKGMLEVFRELTDVRRYWVDVTVAPNNISCAVISEDKRQVSSPKPQIIYGARGTRYTFQTFTNFNYCTGILGSQSITSGKHYWEVDVSKKTAWILGVCAGFQPDAMCNIEKNENYQPKYGYWVIGLEEGVKCSAFQDSSFHTPSVPFIVPLSVIICPDRVGVFLDYEACTVSFFNITNHGFLIYKFSHCSFSQPVFPYLNPRKCGVPMTLCSPSS [human TRIM5α, 330-340 = GARGTRYTFQTFT]”, the enrichment turned out to be 0.636 ± 0.24.
The same measure, in the same setting: to “MASGILVNVKEEVTCPICLELLTQPLSLDCGHSFCQACLTANHKKSMLDKGESSCPVCRISYQPENIRPNRHVANIVEKLREVKLSPEGQKVDHCARHGEKLLLFCQEDGKVICWLCERSQEHRGHHTFLTEEVAREYQVKLQAALEMLRQKQQEAEELEADIREEKASWKTQIQYDKTNVLADFEQLRDILDWEESNELQNLEKEEEDILKSLTNSETEMVQQTQSLRELISDLEHRLQGSVMELLQGVDGVIKRTENVTLKKPETFPKNQRRVFRAPDLKGMLEVFRELTDVRRYWVDVTVAPNNISCAVISEDKRQVSSPKPQIIYGARGTRYTFQTFVNFNYCTGILGSQSITSGKHYWEVDVSKKTAWILGVCAGFQPDAMCNIEKNENYQPKYGYWVIGLEEGVKCSAFQDSSFHTPSVPFIVPLSVIICPDRVGVFLDYEACTVSFFNITNHGFLIYKFSHCSFSQPVFPYLNPRKCGVPMTLCSPSS [human TRIM5α, 330-340 = GARGTRYTFQTFV]” belongs 0.143 ± 0.11.
For the sequence “MASGILVNVKEEVTCPICLELLTQPLSLDCGHSFCQACLTANHKKSMLDKGESSCPVCRISYQPENIRPNRHVANIVEKLREVKLSPEGQKVDHCARHGEKLLLFCQEDGKVICWLCERSQEHRGHHTFLTEEVAREYQVKLQAALEMLRQKQQEAEELEADIREEKASWKTQIQYDKTNVLADFEQLRDILDWEESNELQNLEKEEEDILKSLTNSETEMVQQTQSLRELISDLEHRLQGSVMELLQGVDGVIKRTENVTLKKPETFPKNQRRVFRAPDLKGMLEVFRELTDVRRYWVDVTVAPNNISCAVISEDKRQVSSPKPQIIYGARGTRYTFQTLTNFNYCTGILGSQSITSGKHYWEVDVSKKTAWILGVCAGFQPDAMCNIEKNENYQPKYGYWVIGLEEGVKCSAFQDSSFHTPSVPFIVPLSVIICPDRVGVFLDYEACTVSFFNITNHGFLIYKFSHCSFSQPVFPYLNPRKCGVPMTLCSPSS [human TRIM5α, 330-340 = GARGTRYTFQTLT]”, the enrichment stood at 0.15 ± 0.0018.
Regarding “MASGILVNVKEEVTCPICLELLTQPLSLDCGHSFCQACLTANHKKSMLDKGESSCPVCRISYQPENIRPNRHVANIVEKLREVKLSPEGQKVDHCARHGEKLLLFCQEDGKVICWLCERSQEHRGHHTFLTEEVAREYQVKLQAALEMLRQKQQEAEELEADIREEKASWKTQIQYDKTNVLADFEQLRDILDWEESNELQNLEKEEEDILKSLTNSETEMVQQTQSLRELISDLEHRLQGSVMELLQGVDGVIKRTENVTLKKPETFPKNQRRVFRAPDLKGMLEVFRELTDVRRYWVDVTVAPNNISCAVISEDKRQVSSPKPQIIYGARGTRYTFQTLVNFNYCTGILGSQSITSGKHYWEVDVSKKTAWILGVCAGFQPDAMCNIEKNENYQPKYGYWVIGLEEGVKCSAFQDSSFHTPSVPFIVPLSVIICPDRVGVFLDYEACTVSFFNITNHGFLIYKFSHCSFSQPVFPYLNPRKCGVPMTLCSPSS [human TRIM5α, 330-340 = GARGTRYTFQTLV]”, the enrichment turned out to be 0.129 ± 0.096.

The same data set, now with this note: library: insertions and deletions.
“MASGILVNVKEEVTCPICLELLTQPLSLDCGHSFCQACLTANHKKSMLDKGESSCPVCRISYQPENIRPNRHVANIVEKLREVKLSPEGQKVDHCARHGEKLLLFCQEDGKVICWLCERSQEHRGHHTFLTEEVAREYQVKLQAALEMLRQKQQEAEELEADIREEKASWKTQIQYDKTNVLADFEQLRDILDWEESNELQNLEKEEEDILKSLTNSETEMVQQTQSLRELISDLEHRLQGSVMELLQGVDGVIKRTENVTLKKPETFPKNQRRVFRAPDLKGMLEVFRELTDVRRYWVDVTVAPNNISCAVISEDKRQVSSPKPQIIYGARGTRYTFVNFNYCTGILGSQSITSGKHYWEVDVSKKTAWILGVCAGFQPDAMCNIEKNENYQPKYGYWVIGLEEGVKCSAFQDSSFHTPSVPFIVPLSVIICPDRVGVFLDYEACTVSFFNITNHGFLIYKFSHCSFSQPVFPYLNPRKCGVPMTLCSPSS [human TRIM5α, 1-codon deletion at 337]” had an enrichment of 0.699 ± 0.38.
In the case of “MASGILVNVKEEVTCPICLELLTQPLSLDCGHSFCQACLTANHKKSMLDKGESSCPVCRISYQPENIRPNRHVANIVEKLREVKLSPEGQKVDHCARHGEKLLLFCQEDGKVICWLCERSQEHRGHHTFLTEEVAREYQVKLQAALEMLRQKQQEAEELEADIREEKASWKTQIQYDKTNVLADFEQLRDILDWEESNELQNLEKEEEDILKSLTNSETEMVQQTQSLRELISDLEHRLQGSVMELLQGVDGVIKRTENVTLKKPETFPKNQRRVFRAPDLKGMLEVFRELTDVRRYWVDVTVAPNNISCAVISEDKRQVSSPKPQIIYGARGTRYTGILGSQSITSGKHYWEVDVSKKTAWILGVCAGFQPDAMCNIEKNENYQPKYGYWVIGLEEGVKCSAFQDSSFHTPSVPFIVPLSVIICPDRVGVFLDYEACTVSFFNITNHGFLIYKFSHCSFSQPVFPYLNPRKCGVPMTLCSPSS [human TRIM5α, 9-codon deletion at 337]”, the enrichment was determined as 1.37 ± 0.35.
